Assay results from PubChem BioAssay (NCATS).
Some of the results follow. Further columns of the screen follow, without active or inactive calls. For some assays here: Most of these compounds were active or inconclusive in the main read-out, so they are no random draw. The note in brackets gives the kind of curve behind each potency; many fits are weak.

Experiments:
[1] = qHTS drug screen for cell cycle checkpoint inhibitors in PARPi-resistant BRCA-mutant ovarian cancer cell lines. (AID 1963452); conditions: PEO1/OlaR viability, CellTiter-Glo luminescence, 96 h
Summary of the method: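 PEO1, PEO4 and PEO1/OlaR ovarian cancer cells, 600 per well, exposed 96 h at 37C to a dilution series. Viability read by CellTiter-Glo luminescence, normalized to DMSO and empty wells; activity summarized as Z-AUC.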

[2] = qHTS for identification of novel therapeutic agents for treatment of microphthalmiaassociated transcription factor (MiT) renal cell carcinoma (RCC) (AID 1963991); conditions: CellTiter-Glo, 48 h; for z-score: stronger effect = lower value
Summary of the method: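 Three TFE3-fusion RCC cell lines (UOK109, UOK124, UOK145), 500 cells/well, were exposed to the 1912-compound MIPE 4.0 library for 48 hours at 37 C. Viability was read by CellTiter-Glo luminescence, normalised to DMSO (100%) and empty wells (0%), with 11-concentration curve fits.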

[3] = measured here: PEO1 parental viability
[4] = TFE3-RCC UOK109 viability, measured here: UOK109 Z-AUC
[5] = TFE3-RCC viability, measured here: UOK124 Z-AUC
[6] = TFE3-RCC viability, measured here: UOK124 cell viability
[7] = TFE3-RCC viability, measured here: UOK145 Z-AUC
[8] = TFE3-RCC viability, measured here: UOK145 cell viability
Tags give direction and shape of the fitted curve.

Row | SMILES | AC50 [1, 3] | AC50 ([1]; measured here: PEO4 viability) | z-score [2, 4] | z-score [2, 5] | AC50 [2, 6] | z-score [2, 7] | AC50 [2, 8]
1 | CCOc1cc(N2CCC(O)CC2)ccc1Nc1ncc2c(n1)N(C)c1ccccc1C(=O)N2C | 24.5 µM [falling, single point] | 13.8 µM [falling, partial curve] | 0.105 | -1.03 | 1.87 µM [falling, partial curve] | -0.017 | 1.48 µM [falling, full curve]
2 | Clc1cc(Cl)cc(CNc2ncncc2-c2ccc3c(c2)OCO3)c1 | 15.5 µM [falling, partial curve] | 17.4 µM [falling, partial curve] | 1.21 | 0.415 | 23.5 µM [falling, single point] | 0.237 | 33.2 µM [falling, single point]
3 | CC(=O)Nc1nc(C)c(-c2ccc(Cl)c(S(=O)(=O)NCCO)c2)s1 | 12.3 µM [falling, partial curve] | 6.92 µM [falling, partial curve] | -0.551 | -0.545 |  | -0.222 | 5.26 µM [falling, partial curve]
4 | c1ccc(CNc2nc(NCc3ccccc3)c3ccccc3n2)cc1 | 19.5 µM [falling, partial curve] | 4.36 µM [falling, full curve] | -0.312 | -0.0997 | 26.4 µM [falling, partial curve] | -0.306 | 14.8 µM [falling, partial curve]
5 | Cc1cc(Nc2cc(CN3CCOCC3)c3nc(C)c(Cc4ccc(Cl)cc4F)n3n2)n[nH]1 | 17.4 µM [falling, partial curve] | 0.123 µM [falling, full curve] | 0.283 | -0.584 | 16.6 µM [falling, partial curve] | 0.463 | 20.9 µM [falling, partial curve]
6 | COc1ccc2nc3cc(Cl)ccc3c(Nc3cc(CN4CCCC4)c(O)c(CN4CCCC4)c3)c2n1 | 24.5 µM [falling, single point] | 27.5 µM [falling, single point] | 0.317 | 0.657 | 20.9 µM [falling, partial curve] | 0.491 | 20.9 µM [falling, partial curve]
